Values marked as one replicate rest on one cluster of the flow cell; about a third of the high ones do not repeat.
What follows are sequences tested on ATP (assay: switch fluorescence ratio, 500 uM ATP over buffer (Cy3 cluster intensity, sum of 5 cycles each) (fold (ratio)); higher = stronger signal-on switching upon ATP binding; sequences stand for … in TCGTCGGCAGCGTCAGATGTGTATAAGAGACAGTTTTTTTTTTTTTTTTTTTTTTTTT…TC). Settings: aptamer strand: ATP DNA aptamer (quencher-CACCTGGGGGAGTATTGCGGAGGAAGG + anchor), 100 nM annealed; ATP concentration: 500 uM; one replicate.
In short: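 Five buffer/ATP imaging cycles were run on Cy3-labelled switching-strand clusters on a modified Illumina MiSeq flow-cell, with NaOH stripping and re-annealing between cycles. In each cycle, clusters annealed to 100 nM quencher-labelled ATP aptamer were imaged in selection buffer, then after 15 min with 500 uM ATP at 22 °C. Per cluster, the fluorescence ratio is summed target-cycle over summed buffer-cycle Cy3 intensity, averaged per switch-domain sequence. Only clusters within 100-1000 RFU were kept.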
Work on ATTCGGCCAC yielded a switch fluorescence ratio of 0.987. GAGATTACT showed a switch fluorescence ratio of 0.99. In the case of CGTTCGTAAC, the switch fluorescence ratio was 1.4. Work on ATTTTTGTA yielded a switch fluorescence ratio of 0.971. Sequence GGGATTTAAT has a switch fluorescence ratio of 0.996. GACTAAACAG gave a switch fluorescence ratio of 1.01. GTCCGGTAAC showed a switch fluorescence ratio of 1.76. AATCGTTGAT was tested, and the switch fluorescence ratio was 0.968. For CAATTGATAC, the switch fluorescence ratio was 1.04. GATCCGAGTC was tested, and the switch fluorescence ratio was 1.08. Work on GGGTCACTGC yielded a switch fluorescence ratio of 0.991. With CACTTCCGCA the switch fluorescence ratio was 1.34. In the case of TTCATTCA, the switch fluorescence ratio was 1.05. Work on AGTCCCCAAA yielded a switch fluorescence ratio of 1.04. With ATTGGCAGTA the switch fluorescence ratio was 1.03. Work on CGGGGTGTAG yielded a switch fluorescence ratio of 0.993. Sequence GGAATCCCTG has a switch fluorescence ratio of 1.04. GGGTGTCAAT showed a switch fluorescence ratio of 1.01. With AGTTTACTAA the switch fluorescence ratio was 0.992. TCTTGAAGAA showed a switch fluorescence ratio of 0.937. GTATAGGGAG showed a switch fluorescence ratio of 1.03. With AACAGGGCAT the switch fluorescence ratio was 1. AAAGTGGAT showed a switch fluorescence ratio of 1.01. In the case of CCAGGTATTA, the switch fluorescence ratio was 1.05. TATATCGCA showed a switch fluorescence ratio of 1. AAACTAGAGA gave a switch fluorescence ratio of 1. AACTAAAGTG showed a switch fluorescence ratio of 0.933. ATAGCCGCAG gave a switch fluorescence ratio of 1.2. TACAGTGC showed a switch fluorescence ratio of 0.98. For CGCTAGACAT, the switch fluorescence ratio was 1. Sequence GAAGGGACGC has a switch fluorescence ratio of 1.04. AAGGGTCTG gave a switch fluorescence ratio of 1.01. TAATGAAGGC showed a switch fluorescence ratio of 0.954. AGACGGATC showed a switch fluorescence ratio of 1.03. Sequence CAGCTCCGAG has a switch fluorescence ratio of 1.11. Sequence CTTTTCACAA has a switch fluorescence ratio of 0.999. With ATTGGGTCAG the switch fluorescence ratio was 1.04. For TCGGTCATT, the switch fluorescence ratio was 0.951. Work on AAAAACAGCC yielded a switch fluorescence ratio of 0.998. TAGATTTTGA showed a switch fluorescence ratio of 1.01. In the case of CTCAGTTTAC, the switch fluorescence ratio was 1.45. Work on GTATGTCCTG yielded a switch fluorescence ratio of 0.891. With GATTCGACT the switch fluorescence ratio was 0.981. GGCCCCTG showed a switch fluorescence ratio of 1.01. For ACAAGTAGAG, the switch fluorescence ratio was 0.985. GGGGCGTGTC showed a switch fluorescence ratio of 0.971. In the case of GCCGAACGAA, the switch fluorescence ratio was 1.37. TACATCTGC showed a switch fluorescence ratio of 1.05. Sequence ATTTCGGGTG has a switch fluorescence ratio of 1.05. Sequence ATTATTATTA has a switch fluorescence ratio of 1.04. With GGCGCCTGG the switch fluorescence ratio was 0.949. Work on AGGCACGGTA yielded a switch fluorescence ratio of 1.06. In the case of CCTGGGGCCG, the switch fluorescence ratio was 0.964. Sequence CAATCTTGTG has a switch fluorescence ratio of 1.01. With TTGTACAAGC the switch fluorescence ratio was 1.04. In the case of GGCGCCCGTT, the switch fluorescence ratio was 0.996. Work on CTTACAACAC yielded a switch fluorescence ratio of 1.35. CATTCCCCTG was tested, and the switch fluorescence ratio was 1.04. TATTTCGGTC was tested, and the switch fluorescence ratio was 0.943. Sequence TTTCGCCACG has a switch fluorescence ratio of 1.22. GCGTTTGGTC showed a switch fluorescence ratio of 1.01. TTCCGGGACT was tested, and the switch fluorescence ratio was 1.11. GAATATGCTT gave a switch fluorescence ratio of 1.02. For GTGTCGTGCG, the switch fluorescence ratio was 0.98. With TTATTTCAAA the switch fluorescence ratio was 0.999. Work on CCAAGCAGCG yielded a switch fluorescence ratio of 1.22. Sequence GTGTGACTGG has a switch fluorescence ratio of 1.02. Work on AAGGTGAACA yielded a switch fluorescence ratio of 1. TAACGAGGCG was tested, and the switch fluorescence ratio was 1.01. AGGCCTATAC was tested, and the switch fluorescence ratio was 1.1. Sequence CCGTGAGCGG has a switch fluorescence ratio of 1.11. GGCTGAACAG was tested, and the switch fluorescence ratio was 1.01. Work on CTAGTCCCGT yielded a switch fluorescence ratio of 1.01. CGGTGCCCGG showed a switch fluorescence ratio of 0.982. ACAGTTAAAA showed a switch fluorescence ratio of 0.981. With GGCGGAGCGA the switch fluorescence ratio was 1.04. With TCGTAAATAT the switch fluorescence ratio was 1.09. TTATTCACAA gave a switch fluorescence ratio of 1.03. Sequence ATGTATACAG has a switch fluorescence ratio of 0.994. ACCGTACATG gave a switch fluorescence ratio of 1.47. For ACTTAGAGAT, the switch fluorescence ratio was 1.01. CTACGCTATT gave a switch fluorescence ratio of 5.33. Work on TCGAGGGTCG yielded a switch fluorescence ratio of 0.999. TGAGAGAAGC showed a switch fluorescence ratio of 0.975. ATTATGGAAT showed a switch fluorescence ratio of 1.05. AGTGACCGGG gave a switch fluorescence ratio of 1.03. For AAGAATCCTG, the switch fluorescence ratio was 0.991. In the case of TTAGTTGCAT, the switch fluorescence ratio was 1.01. For TTATTTTTAC, the switch fluorescence ratio was 0.983. In the case of ACGGCTTCAT, the switch fluorescence ratio was 1.01. CTATGGTAAG showed a switch fluorescence ratio of 1. CATTCAGGTA gave a switch fluorescence ratio of 1. For TCTATGGATT, the switch fluorescence ratio was 0.99. AGGTTTG gave a switch fluorescence ratio of 0.975. Sequence CGTAGGTATA has a switch fluorescence ratio of 1. For CAAAGGATAG, the switch fluorescence ratio was 1.04. For GGGTTTTCTA, the switch fluorescence ratio was 0.992. TCTTCTTTTC gave a switch fluorescence ratio of 0.969. CATTTACTTT gave a switch fluorescence ratio of 1.03. TCAATTGGTG showed a switch fluorescence ratio of 1.01. For ATATGTTCG, the switch fluorescence ratio was 0.999. GCTGCGGTA gave a switch fluorescence ratio of 1.03. GACAATAAC showed a switch fluorescence ratio of 1.31. CAAAAGGAAC was tested, and the switch fluorescence ratio was 0.948. CGTGATCGTG was tested, and the switch fluorescence ratio was 0.949. GTTTGTTTCG was tested, and the switch fluorescence ratio was 0.99. With AGATCATATG the switch fluorescence ratio was 0.998. TTACATAAAA showed a switch fluorescence ratio of 1.04. CGGCGGAAGA showed a switch fluorescence ratio of 1.01. For GATGTAGAGA, the switch fluorescence ratio was 1. TTCCTGGTTG gave a switch fluorescence ratio of 0.992. With TACCTGCCTT the switch fluorescence ratio was 1.24. CCATTCACTT showed a switch fluorescence ratio of 1.05. For TTTATCGCGA, the switch fluorescence ratio was 1.06. TTGGTGCTT gave a switch fluorescence ratio of 1.03. ACGAGGTCGA gave a switch fluorescence ratio of 1.02. For ACCGCTAAT, the switch fluorescence ratio was 2.05. GGGGGCGAAA showed a switch fluorescence ratio of 1.01. Sequence TACTCCCTTC has a switch fluorescence ratio of 1.6. ACGGGAGCTG showed a switch fluorescence ratio of 0.97. With CGGCATCCTA the switch fluorescence ratio was 1.02. TATATTTCGC was tested, and the switch fluorescence ratio was 1.01. In the case of AAGTAGGAG, the switch fluorescence ratio was 0.965. With GTTCTAATGG the switch fluorescence ratio was 1. Sequence TGCGGAACAC has a switch fluorescence ratio of 1.63. For GACACCTTCT, the switch fluorescence ratio was 1.5. ATAAACGTAT showed a switch fluorescence ratio of 1.06. Work on AGTGGTGGA yielded a switch fluorescence ratio of 0.974. TCCATCGCTC showed a switch fluorescence ratio of 3.21. In the case of GGGTTCGCCT, the switch fluorescence ratio was 1.02. AGGACTTCTG gave a switch fluorescence ratio of 0.998. In the case of CGCCTTACCT, the switch fluorescence ratio was 1.19. Work on GTACTCGCGG yielded a switch fluorescence ratio of 1.08. TAGGGACCGT showed a switch fluorescence ratio of 1.01. TAAACGCTT gave a switch fluorescence ratio of 1.01. In the case of AACTGGTCG, the switch fluorescence ratio was 1.04. Work on AGGTGGCCTA yielded a switch fluorescence ratio of 0.971. Sequence ATCCTACGCA has a switch fluorescence ratio of 3.91. CGAACTTCTG showed a switch fluorescence ratio of 0.975. TGGCCTTGGG gave a switch fluorescence ratio of 0.994. With TAGATCGCTC the switch fluorescence ratio was 1.03. GCACATCTTT was tested, and the switch fluorescence ratio was 1. In the case of GCTTTACGGC, the switch fluorescence ratio was 1.01. Sequence AAACAGGATT has a switch fluorescence ratio of 1. Sequence CGGCCACAGA has a switch fluorescence ratio of 1.04. ATATGATAGT gave a switch fluorescence ratio of 0.987. In the case of CCGGTCCTTG, the switch fluorescence ratio was 1.01. In the case of CGGCAAATAT, the switch fluorescence ratio was 1.83. For TAATAAGCGA, the switch fluorescence ratio was 1.03. Work on CCTAATGAGT yielded a switch fluorescence ratio of 0.989. AATCGCATCG gave a switch fluorescence ratio of 1.06. Sequence AGGTCCTATT has a switch fluorescence ratio of 0.986. Sequence GTCGGCCTTA has a switch fluorescence ratio of 1.02. For AAGGGCTGTA, the switch fluorescence ratio was 0.977. With TCGAACGAAC the switch fluorescence ratio was 1.23. Sequence ATCATACTAA has a switch fluorescence ratio of 1.04. For CATGCTCTCG, the switch fluorescence ratio was 1.01. GCAGTCCTCG gave a switch fluorescence ratio of 1.02.

Source: the supplement of paper PMC10126150
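Note: ATP exposure 15 min at 22 °C before imaging.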
